Hit rate of the full screen: of about 110,000 compounds, about 230 (0.21%) showed an effect of 50% or more. This is one part of the list.
biological target: DPAP1 (Plasmodium falciparum, UniProt Q8IIJ9); assay: primary screen, percent inhibition; read by cleavage of a fluorogenic dipeptide substrate; higher = more effect of the substance; design: species or system P. falciparum D10 trophozoite lysates; single well
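Further: 30 min substrate incubation versus DMSO and 10 µM JCP410 controls.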

Chain of DPAP1 (Q8IIJ9 whole entry, looked up): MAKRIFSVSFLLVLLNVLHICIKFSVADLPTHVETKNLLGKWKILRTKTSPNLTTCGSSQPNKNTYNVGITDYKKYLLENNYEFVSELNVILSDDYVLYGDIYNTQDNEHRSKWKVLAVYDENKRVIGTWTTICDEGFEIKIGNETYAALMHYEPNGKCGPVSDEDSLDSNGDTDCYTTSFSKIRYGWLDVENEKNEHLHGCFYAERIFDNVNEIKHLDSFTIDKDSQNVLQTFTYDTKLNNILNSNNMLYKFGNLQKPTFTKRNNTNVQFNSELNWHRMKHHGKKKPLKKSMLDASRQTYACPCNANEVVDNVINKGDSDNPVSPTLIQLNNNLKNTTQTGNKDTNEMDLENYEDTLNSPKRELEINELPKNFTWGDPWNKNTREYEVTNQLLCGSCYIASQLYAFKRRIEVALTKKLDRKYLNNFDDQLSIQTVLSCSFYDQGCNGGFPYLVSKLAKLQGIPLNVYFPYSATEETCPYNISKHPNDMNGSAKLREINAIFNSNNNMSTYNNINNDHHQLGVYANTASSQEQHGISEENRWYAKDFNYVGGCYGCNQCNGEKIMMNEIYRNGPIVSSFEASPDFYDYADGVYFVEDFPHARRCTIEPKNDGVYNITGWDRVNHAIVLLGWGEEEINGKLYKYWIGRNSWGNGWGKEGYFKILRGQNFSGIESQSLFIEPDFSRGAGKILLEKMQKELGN

| Structure (SMILES) | % Inhibition @ 10 uM [%] |
| --- | --- |
| CC1=C(C(=O)OC(C)C)C(c2ccc(Cl)cc2Cl)CC(=O)N1 (centres unmarked) | -7.98 |
| CCOc1ccccc1C1C(C#N)=C(N)Oc2cc(N(C)C)ccc21 (centres unmarked) | -5.94 |
| COc1ccc(-c2cc(-c3ccc(C)cc3)nc(Cl)n2)cc1 | -0.856 |
| CCCN1CCN(C(=O)c2cc3cc4ccc(C)cc4nc3s2)CC1 | 0.675 |
| O=C1CC(C2CCCO2)C(=O)N1c1ccc(Cl)c(Cl)c1 (centres unmarked) | -6.83 |
| Cc1n[nH]c(C)c1CCCCOc1ccccc1F | -0.351 |
| Cc1c2cnn(CC(=O)NC(C)C34CC5CC(CC(C5)C3)C4)c(=O)c2c(C)n1Cc1ccc(F)cc1 (centres unmarked) | 1.22 |
| CC(C)COC(=O)c1ccc(NC(=O)c2cccc([N+](=O)[O-])c2)cc1 | -7.32 |
| CCCC1=C(C(=O)OCC)C(c2cc(OC)c(OC)c(OC)c2)C(C#N)=C(N)O1 (centres unmarked) | -0.597 |
| CC(=O)N1N=C(c2ccccc2)CC1c1cccc(O)c1 (centres unmarked) | -1.2 |
| COc1ccc(-c2nc3n(n2)C(c2ccc4c(c2)OCO4)C(C(=O)Nc2cccnc2)=C(C)N3)cc1 (centres unmarked) | 0.275 |
| CC(C)CC(=O)Nc1cccc(Oc2ccc3c(c2)C(=O)NC3=O)c1 | 0.889 |
| CC(=O)N(C1=NCCCCS1)c1ccccc1 | 6.08 |
| COc1ccc(-c2cn3nc(N4CCCC(C(=O)NCc5cccnc5)C4)sc3n2)cc1 (centres unmarked) | 3.46 |
| CCc1ccc(-c2cc3c(=O)n(CC(=O)NCc4ccc5c(c4)OCO5)nc(C)n3n2)cc1 | -2.85 |
| O=C(NCc1cccnc1)c1ccc(CSc2nc3cccnc3n2Cc2cccc(F)c2)cc1 | 9.02 |
| COc1ccc(CCNC(=O)CSc2nc3c(c(=O)n2Cc2ccccc2)SCC3)cc1OC | -1.97 |
| Cc1ccc(S(=O)(=O)N2CCN(Cc3csc(C)n3)CC2)cc1 | -4.91 |
| CC(C)(C)NCC(O)CO/N=C(\c1ccncc1)c1ccc(Br)cc1 (centres unmarked) | -2.42 |
| Cc1[nH]c2ccccc2c1C=C1C(=O)OC2(CCCC2)OC1=O | -10.5 |
| COc1cc(/C=C/c2nc(C#N)c(N(C)C)o2)cc(OC)c1OC | 2.54 |
| CSc1ccc(C2C(C#N)=C(N)Oc3c2c(C)nn3-c2ccccc2)cc1 (centres unmarked) | -1.08 |
| O=C(Nc1ccccc1C(F)(F)F)C1CC(=O)N(c2ccccc2Cl)C1 (centres unmarked) | -4.75 |
| O=C(O)CC1(c2ccccc2)C(=O)c2ccccc2C1=O | 4.98 |
| CCOc1ccc(-n2cc(-c3ccccc3)c3c(N4CCN(C)CC4)ncnc32)cc1 | 5.08 |
| CCCCNC(=O)Cn1ncc2c(=O)oc3ccc(C)cc3c21 | -3.45 |

— PMC6919601, “Identification of Plasmodium dipeptidyl aminopeptidase allosteric inhibitors by high throughput screening” (PLoS ONE, 2019)
